Here are results for 57 sequences from the supplement of paper PMC11417369.

± gives the standard deviation of the averaged measurements. The list shows a part of the results.

The assay relates to PfAP2-LT AP2 domain (GST-tagged). Nature of the assay: gcPBM binding intensity (ln(normalized median fluorescence intensity)); higher = stronger DNA binding. The procedure, abridged: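 Binding of GST-tagged P. falciparum DNA-binding domains, expressed in E. coli and used at about 25 μg on average, was carried out for 1 h in 1× PBS containing 1% milk, 0.2 mg/ml BSA, 0.5% salmon testes DNA and 0.03% Triton X-100. The target was an Agilent 4 × 180k array of primer-extended double-stranded 36-bp intergenic genomic probes plus negative controls, read with Alexa488 anti-GST antibody at 488 nm. Binding intensity is the highest Masliner-normalised natural-log median intensity across replicate spots of either probe orientation.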
For the sequence “TTAAAATTTTTTTTTTTTTTTTTTTTTTTTTTTTTC [CACACA_negctrl_site957]”, the “gcPBM binding intensity (ln)” value turned out to be 8.13 ± 0.61.
The figure for “AAAATAAAAAGAAAAAATAAAAAGAAAAAATAAAAA [CACACA_negctrl_site120]” is 8.46 ± 0.61; for “AGTGAAAAAAAATTTACACACATAAAATATAAACGA [CACACA_site3724]” it is 9.21 ± 0.55.
Regarding “AAATAAAATACATATAAACACACATATAAACCAACA [CACACA_site8789]”, the “gcPBM binding intensity (ln)” value turned out to be 9.44 ± 0.3.
The figure for “AAAAAAAATATAAGTGGTACTCACATAAAGACATAT [XGTACX_site3709]” is 9.07 ± 0.41; for “TAATACTTTTAATCTACACACGCTGAGACATGCTTT [CACACA_site1484]” it is 9.06 ± 0.49; for “TTTTTAGTTCATTAAACACACAAAAAAAAAAATAAA [CACACA_site6035]” it is 8.45 ± 0.41.
The figure for “TTTTTTATTCTTTTTGCACACAGGAAATTTACAGAT [CACACA_site1090]” is 9.21 ± 0.42.
For the sequence “TTATATAATCCTTTCAAACACACAAAATATAATTAA [CACACA_site1830]”, the “gcPBM binding intensity (ln)” value came out at 8.62 ± 0.42.
As for “TGCCCTTTGGTTATAACACACATGCACACGTAAATA [CACACA_site7750]”, the “gcPBM binding intensity (ln)” value is 9.4 ± 0.23.
The figure for “AATTAACCGTGACACACACACATATAAATATAAATA [CACACA_site7790]” is 9.54 ± 0.56; for “GGGAATATATAAGATACACACACAAATTAAATATAA [CACACA_site8898]” it is 9.44 ± 0.39; for “TATATATATATATATACACACACACCCACCAAAGCG [CACACA_site7904]” it is 10.02 ± 0.021.
Turning to “ATGAAATATGCACAGTGTACTTTTATGAGGAACATA [XGTACX_site426]”, the “gcPBM binding intensity (ln)” value is 8.84 ± 0.44.
The value for “TTTTTAATACAAAAAAAATAATATGTTATATTTCAA [CACACA_negctrl_site35]” was 8.18 ± 0.45; that for “TACAATTTATGACACACACACAATAATACCTATATA [CACACA_site6704]” was 9.61 ± 0.27; that for “AAAAAAAAAAAACACACACACACACTAGTACATACA [CACACA_site4551]” was 10.2 ± 0.3.
The figure for “TATATATATATATGTGCACACATAAAGATATTATTT [CACACA_site3734]” is 9.77 ± 0.3; for “AATAAAATAATAGGCACACATATATATATATATTAT [CACACA_site273]” it is 9.2 ± 0.37.
The figure for “ATATATCTACATATATGTACATATATGTATATGTAT [XGTACX_site5432]” is 9.18 ± 0.3; for “ATATCCTACTTCTAGTGTACATATATGGACTGATGA [XGTACX_site3683]” it is 8.88 ± 0.46.
Turning to “TTTTGTAAAAGGTATATATATATATATATATATATA [GTGCAC_negctrl_site734]”, the “gcPBM binding intensity (ln)” value was 9.79 ± 0.22.
The value for “AATAAAAAAATAAAAAAAAAAAAAAATAAAAAAAAA [GTGCAC_negctrl_site12]” was 8.36 ± 0.45; that for “CGTATTTTAATATTTACACACTTATTTTTTATATAA [CACACA_site125]” was 8.78 ± 0.52; that for “TATAGCATATTTCACACACACATAATGAATATTATA [CACACA_site3545]” was 9.4 ± 0.28.
The value for “TTTATATAGAAAAATTGTACGAATTACTTTTTTATA [XGTACX_site6843]” was 8.36 ± 0.41; that for TATAGTAAAATTAGGGTGCTTTTGTAACAAAAAAAA was 8.61 ± 0.52; that for “TTATTTTCTTTCTATGCACACGCACGTATTTGCCCA [CACACA_site9104]” was 9.14 ± 0.49.
As for “TGCTTCATAAATAAAACATGCAATATAGAAATTAAA [TGCATGCA_site690]”, the “gcPBM binding intensity (ln)” value was 8.39 ± 0.41.
The value for “AAATATATATACCACACACACATACCTCTATTTGTA [CACACA_site1854]” was 9.7 ± 0.18.
The figure for “AGAGTAGGAAATGGAAAAATAAAATAAATAAATAAA [XGTACX_negctrl_site69]” is 8.67 ± 0.68; for “AATCCTTTAAAACACACACACAAAAAAAAAAAAAAA [CACACA_site642]” it is 9.28 ± 0.52; for “TTTAACGTTGAATATACACACATATATTTATTTATA [CACACA_site7695]” it is 8.82 ± 0.42.
The value for “AAAATGTACTTTTTCTAAAGAGTAATGATGCTTGAT [CACACA_negctrl_site1124]” was 8.55 ± 0.38; that for “GGGAGGATAGTTCACAGTACCCAGGAAATCTACGGA [XGTACX_site2553]” was 8.81 ± 0.6.
For “GGTTCATAATATGGTTGTACATAAATATATATATAT [XGTACX_site7583]”, the “gcPBM binding intensity (ln)” value turned out to be 9.04 ± 0.3.
The figure for “ATATATATGTATAATCGTACAGTTAACGTATTCTTA [XGTACX_site5649]” is 8.98 ± 0.34.
The value for “AAACAGATAAATAAAAGTACACATTAAAAGGTAGCA [XGTACX_site4150]” was 9.04 ± 0.64.
Take “GGATTTTAATGAACACGTACATAAAATTAAATAAAT [XGTACX_site7023]”: the “gcPBM binding intensity (ln)” value was 8.73 ± 0.45.
With “TAATTAATTTCTTTACGTACATAATTAATATATATA [XGTACX_site7372]”, the “gcPBM binding intensity (ln)” value was determined as 8.53 ± 0.43.
The figure for “CTTTGCCTTAAAAAGGAACACACATGCTTTTTTTAG [CACACA_site8219]” is 8.72 ± 0.42; for “TACTATATCATTTATTGTACAATATTTCTTCAGAAA [XGTACX_site1008]” it is 8.62 ± 0.45.
The figure for “TATAAAAGACTAAATATTATAGAAATATAAATATAA [TGCATGCA_negctrl_site237]” is 8.44 ± 0.59; for “TAACAAGGTTTATATGCATGCAAACATAACCAAAAA [TGCATGCA_site824]” it is 8.85 ± 0.39.
As to “AATGGGTAAACATACACACACACATCTATATTTATA [CACACA_site7025]”, the “gcPBM binding intensity (ln)” value is 9.78 ± 0.4.
The value for CATGAGGTATAAAAGGTGCAAATTAATGAGAACATT was 9.04 ± 0.57; that for “TTATATCAAGGGAATGCATGCATATCGTTTTGTATT [TGCATGCA_site327]” was 9.05 ± 0.3.
Turning to “AATAATATACATATATATATTATATTGTAATTTTGT [TGCATGCA_negctrl_site1]”, the “gcPBM binding intensity (ln)” value was 8.64 ± 0.4.
With “ACTAGACAAAATATAATGCACACTATTATTTTTATT [CACACA_site2726]”, the “gcPBM binding intensity (ln)” value amounted to 8.88 ± 0.42.
Turning to “TTGCATTGATCAAACATACACACATGGTTAATAAAA [CACACA_site2084]”, the “gcPBM binding intensity (ln)” value amounted to 8.84 ± 0.41.
The figure for “TATTCTTATATATATACACACACAAAATATCTACAA [CACACA_site8144]” is 9.11 ± 0.38; for “TATTTCTCACTGTATGGTACAGATATAAATTTTTAT [XGTACX_site8776]” it is 8.62 ± 0.32.
“TATATATATATATATGTGCGCATATATTTTTTTGTA [GTGCAC_site9983]”: the “gcPBM binding intensity (ln)” value came to 9.96 ± 0.18.
Regarding “ACAAAATTTACAAAATGTACAAAATATACAAAATAT [XGTACX_site6465]”, the “gcPBM binding intensity (ln)” value worked out at 8.88 ± 0.5.
As for “CACAAATAAATATTCACACATATATGTCTTATATAT [CACACA_site5323]”, the “gcPBM binding intensity (ln)” value turned out to be 9.05 ± 0.45.
On to “ATCAAATTTTTGTTATGTACACAATCATTTAATAAA [XGTACX_site810]”, for which the “gcPBM binding intensity (ln)” value came to 8.53 ± 0.38.
The value for “ATTACAATAAATTCGTGTACATGATACCGCCGCTAC [XGTACX_site8997]” was 9.05 ± 0.4.
